PMC10797426
No constants are given. Whether binding was seen depends on the method and setting. Binding seen in cells or lysates may run through a third protein. Some results given as binding are weak or reduced against the parent protein; the word gives no strength. Each block holds one substance with its values, some of them ahead of it.

Amino acid sequences for entries named in this document (tags omitted). A change or cut given only in a name is not applied to a line headed by its entry. Chains listed by the source or under a name are the forms on record and can include a tag or linker.
UniProt Q03135: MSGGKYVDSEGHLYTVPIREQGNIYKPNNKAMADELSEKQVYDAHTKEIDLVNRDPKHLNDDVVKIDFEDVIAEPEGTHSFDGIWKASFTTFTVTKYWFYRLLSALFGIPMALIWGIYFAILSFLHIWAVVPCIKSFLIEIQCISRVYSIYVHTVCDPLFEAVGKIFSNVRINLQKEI
HA-CAV1 with KIFSN motif deletion (Del) (Q03135, form named): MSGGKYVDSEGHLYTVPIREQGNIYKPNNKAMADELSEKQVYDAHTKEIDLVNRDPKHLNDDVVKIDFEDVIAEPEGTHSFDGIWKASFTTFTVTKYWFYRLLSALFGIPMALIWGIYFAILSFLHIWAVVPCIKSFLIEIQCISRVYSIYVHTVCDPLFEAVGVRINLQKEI
UniProt P35222: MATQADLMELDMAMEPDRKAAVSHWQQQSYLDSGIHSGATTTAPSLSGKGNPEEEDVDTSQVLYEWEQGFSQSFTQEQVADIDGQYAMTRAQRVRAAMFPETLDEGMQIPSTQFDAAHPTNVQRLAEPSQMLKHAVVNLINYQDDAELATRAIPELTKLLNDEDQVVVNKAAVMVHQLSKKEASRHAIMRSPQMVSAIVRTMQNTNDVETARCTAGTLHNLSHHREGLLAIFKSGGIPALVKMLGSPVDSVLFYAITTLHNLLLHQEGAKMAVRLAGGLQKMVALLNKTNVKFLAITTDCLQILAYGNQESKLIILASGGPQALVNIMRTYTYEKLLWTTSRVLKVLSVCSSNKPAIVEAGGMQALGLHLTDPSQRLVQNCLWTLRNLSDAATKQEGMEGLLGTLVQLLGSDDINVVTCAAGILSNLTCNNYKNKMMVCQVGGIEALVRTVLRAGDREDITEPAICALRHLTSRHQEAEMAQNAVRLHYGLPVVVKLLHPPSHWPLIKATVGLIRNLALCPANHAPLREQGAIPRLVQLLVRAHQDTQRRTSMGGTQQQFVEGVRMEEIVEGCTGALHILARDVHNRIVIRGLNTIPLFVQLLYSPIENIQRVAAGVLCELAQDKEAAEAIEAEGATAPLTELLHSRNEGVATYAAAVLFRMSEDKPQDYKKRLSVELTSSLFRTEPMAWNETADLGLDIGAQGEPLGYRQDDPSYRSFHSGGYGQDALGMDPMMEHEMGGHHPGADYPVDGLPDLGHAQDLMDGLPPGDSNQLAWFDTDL
UniProt P11142: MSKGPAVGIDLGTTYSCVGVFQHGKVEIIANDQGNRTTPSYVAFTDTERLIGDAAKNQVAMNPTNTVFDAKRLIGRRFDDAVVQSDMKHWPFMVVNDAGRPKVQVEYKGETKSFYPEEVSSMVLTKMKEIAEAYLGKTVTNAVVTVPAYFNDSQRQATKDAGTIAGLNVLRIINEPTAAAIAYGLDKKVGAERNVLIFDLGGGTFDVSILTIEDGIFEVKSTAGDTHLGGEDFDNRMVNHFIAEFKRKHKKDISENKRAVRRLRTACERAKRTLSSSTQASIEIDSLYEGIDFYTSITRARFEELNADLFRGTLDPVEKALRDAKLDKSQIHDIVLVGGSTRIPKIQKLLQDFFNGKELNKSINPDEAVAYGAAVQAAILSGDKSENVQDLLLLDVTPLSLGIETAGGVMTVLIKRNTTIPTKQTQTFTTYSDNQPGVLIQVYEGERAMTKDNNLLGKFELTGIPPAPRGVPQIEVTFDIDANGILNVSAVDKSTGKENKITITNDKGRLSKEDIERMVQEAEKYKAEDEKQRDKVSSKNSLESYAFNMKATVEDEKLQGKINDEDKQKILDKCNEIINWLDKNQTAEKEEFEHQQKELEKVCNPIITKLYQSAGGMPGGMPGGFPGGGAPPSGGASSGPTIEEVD

What was measured:
[1] = target: caveolin-1 (CAV1), endogenous in RKO cells (human (endogenous in RKO)) (UniProt Q03135); assay: co-IP; CAV1 and β-catenin in RKO cells stably expressing shScramble or shHSPA8; IP lysis buffer, antibody overnight at 4 °C, protein A+G agarose, immunoblot
[2] = target: CAV1 in HEK293T cells (co-IP of Figure 5A) (human) (UniProt Q03135); assay: co-IP; CAV1 with LAMP2A, β-catenin and LC3 in HEK293T cells; IP lysis buffer, antibody overnight at 4 °C, protein A+G agarose, immunoblot
HA-CAV1 S168D (human) = HA-CAV1 S168D (human) (UniProt Q03135); assay: co-IP; HSPA8 and HA-CAV1 S168A or S168D in HEK293T cells; IP lysis buffer, antibody overnight at 4 °C, protein A+G agarose, immunoblot
[3] = target: HA-CAV1 full length (WT) (human) (UniProt Q03135); assay: co-IP; myc-HSPA8 and HA-CAV1 (WT or Del) in HEK293T cells; IP lysis buffer (137 mM NaCl, 20 mM Tris, 10% glycerol, 2 mM EDTA, 1% NP-40, pH 8), antibody overnight at 4 °C, protein A+G agarose 4 h, immunoblot
[4] = target: HA-CAV1 with KIFSN motif deletion (Del) (human) (UniProt Q03135); assay: as above
[5] = target: caveolin-1 (CAV1), endogenous in RKO cells (human (endogenous in RKO)) (UniProt Q03135); assay: co-IP; endogenous proteins in RKO cells; IP lysis buffer (137 mM NaCl, 20 mM Tris, 10% glycerol, 2 mM EDTA, 1% NP-40, pH 8), antibody overnight at 4 °C, protein A+G agarose 4 h, immunoblot

binding [1]: binds
Substance: β-catenin in RKO cells (from UniProt P35222 1-781)

binding [5]: binds
Substance: heat shock 70 kDa protein 8 (HSPA8), endogenous in RKO cells (from UniProt P11142 1-646)

More lines, now with the values behind:

Substance: β-catenin in HEK293T cells (from UniProt P35222 1-781)
binding [2]: binds

Substance: HSPA8 in HEK293T cells (co-IP of Figure 4J) (from UniProt P11142 1-646)
binding (HA-CAV1 S168D (human)): binds

Substance: myc-HSPA8 (from UniProt P11142 1-646)
binding [3]: binds
binding [4]: no binding
